Measurements from patent EP4702992A1, “ANTIBODY-DRUG CONJUGATE” (priority 2023, dated 2024).

Columns and labels:
[1] = test system: NCI-H526 xenograft tumor; test: Pharmacodynamic evaluation in NCI-H526 xenograft tumor mouse model; format: in vivo, nu/nu nude mice; conditions: NCI-H526, 3 mg/kg, single intravenous injection
Excerpt: (§1) Cells were taken from the DLL3-positive cell strain NCI-H526 and inoculated into the right forelimb axilla of nu/nu nude mice at 10^7 cells/mouse (3 mice per group). When the mean tumor volumes of the mice reached about 160 mm^3 (groups 1-2), the mice were randomly grouped and subjected to administration by a single intravenous injection. The day of grouping was defined as Day 0, and the administration was started on Day 0. After tumor grafting, the experimental animals were routinely monitored for tumor growth and the effect of treatment on the normal behavior, specifically the activity, food and water intake, body weight gain or loss (the body weight was measured twice a week), and abnormalities in eyes, fur, and other aspects. Calculation formula for tumor volume: Tumor volume (mm^3) = 1/2 × (a × b^2) (where a represents the long diameter, and b represents the short diameter). Table 24: Pharmacodynamic evaluation of test drug in human small cell lung cancer xenograft NCI-H526 mouse model

[2] = test system: NCI-H69 xenograft tumor; test: Pharmacodynamic evaluation in NCI-H69 xenograft tumor mouse model; format: in vivo, nu/nu nude mice; conditions: NCI-H69, 3 mg/kg, single intravenous injection
Excerpt: as §1, with “NCI-H69” for “NCI-H526”, “140 mm^3,” for “160 mm^3 (groups 1-2),”, “25:” for “24:”

[3] = Day 0 (day of grouping), mean ± standard error

B1: D-ADC55-1-8 (conjugate)
heavy: QVQLVQSGAEVKKPGASVKVSCKASGYTFTDYYMKWVRQAPGQRLEWMGAFNLNNGDTFYNQKFKGRVTITRDTSASTAYMELSSLRSEDTAVYYCARDVYGYGDYWGQGTSVTVSSASTKGPSVFPLAPSSKSTSGGTAALGCLVKDYFPEPVTVSWNSGALTSGVHTFPAVLQSSGLYSLSSVVTVPSSSLGTQTYICNVNHKPSNTKVDKKV[human IgG1 Fc with L234A L235A P329A P331S (EU numbers) not given here]
light: DIVMTQSPDSLAVSLGERATINCRASKSVSTSGYSYMHWYQQKPGQPPKLLIYLASNLDSGVPDRFSGSGSGTDFTLTISSLQAEDVAVYYCQHSRELPYTFGGGTKLEIKRTVAAPSVFIFPPSDEQLKSGTASVVCLLNNFYPREAKVQWKVDNALQSGNSQESVTEQDSKDSTYSLSSTLTLSKADYEKHKVYACEVTHQGLSSPVTKSFNRGEC
- Mean tumor volume (Day 0) [1, 3]: 162.7±21.1 mm^3
- TGI(%) ([1]; Day 21): 113.0%
- Mean tumor volume (Day 21) ([1]; Day 21, mean ± standard error): 57.3±49.7 mm^3
- Mean tumor volume (Day 0) [2, 3]: 142.7±53.2 mm^3
- Mean tumor volume (Day 14) ([2]; Day 14, mean ± standard error): 323.7±244.6 mm^3
- TGI(%) ([2]; table head Day 14): 76.5%
